# Target: CtermHisTag-mEGFR Triple Mutant (R797S, L858R, T790M) (Homo sapiens, UniProt P00533, C797S/L858R/T790M)
# Assay: TR-FRET probe displacement, EGFR triple mutant
# Settings: 1.25 nM EGFR, 100 nM probe, 30 mins room temperature
row,SMILES,IC50 [nM]
1,"C#Cc1cc(=O)n([C@H]2CC[C@@H](NC(=O)C(C)C)CC2)c2nc(Nc3ccc(N4CCN(C)CC4)cc3)ncc12 [Example 82, 2-Methyl-N-[(1s,4s)-4-(5-ethynyl-2-{[4-(4-methylpiperazin-1-yl)phenyl]amino}-7-oxopyrido[2,3-d]pyrimidin-8-yl)cyclohexyl]propanamide]",< 20
2,"C=Cc1c(-c2ccccc2Cl)c(=O)n(C)c2nc(Nc3ccccc3OC)ncc12 [Example 161, 6-(2-chlorophenyl)-5-ethenyl-2-[(2-methoxyphenyl)amino]-8-methylpyrido[2,3-d]pyrimidin-7-one]",1000 to 50000
3,"C#Cc1cc(=O)n2c3nc(ncc13)Nc1ccc(N3CCN(C)CC3)c(c1)S(=O)(=O)NCCC2 [Example 234, 1^5-Ethynyl-3^4-(4-methylpiperazin-1-yl)-1^7,1^8-dihydro-4-thia-2,5-diaza-1(2,8)-pyrido[2,3-d]pyrimidina-3(1,3)-benzenacyclooctaphan-1^7-one 4,4-dioxide]",20 to 100
4,"C#Cc1cc(=O)n(-c2cccc(NC(=O)C=C)c2)c2nc(Nc3ccccc3OC)ncc12 [Example 85, N-(3-(5-Ethynyl-2-((2-methoxyphenyl)amino)-7-oxopyrido[2,3-d]pyrimidin-8(7H)-yl)phenyl)acrylamide]",20 to 100
5,"C#Cc1c(-c2ccccc2Cl)c(=O)n(C)c2nc(Nc3cccc(CO)c3)ncc12 [Example 132, 6-(2-chlorophenyl)-5-ethynyl-2-{[3-(hydroxymethyl)phenyl]amino}-8-methylpyrido[2,3-]pyrimidin-7-one]",< 20
6,"C#Cc1cc(=O)n(-c2ccc(NC(=O)COC(C)=O)cc2)c2nc(Nc3ccccc3OC)ncc12 [Example 64, 2-((4-(5-Ethynyl-2-((2-methoxyphenyl)amino)-7-oxopyrido[2,3-d]pyrimidin-8(7H)-yl)phenyl)amino)-2-oxoethyl acetate]",20 to 100
7,C#Cc1cc(=O)n(C2CCCC2)c2nc(Nc3cccc(N(C)[C@H]4C[C@@H](CS(C)(=O)=O)C4)c3)ncc12 [Example 203],100 to 1000
8,"C#Cc1c(C)c(=O)n2c3nc(ncc13)Nc1ccc(N3CCN(C)CC3)c(c1)OCCCC2 [Example 194, 1^5-Ethynyl-1^6-methyl-3^4-(4-methylpiperazin-1-yl)-1^7,1^8-dihydro-4-oxa-2-aza-1(2,8)-pyrido [2,3-d]pyrimidina-3(1,3)-benzenacyclooctaphan-1^7-one]",20 to 100
9,"C#Cc1c(N)c(=O)n(-c2ccccc2)c2nc(Nc3ccccc3OC)ncc12 [Example 142, 6-amino-5-ethynyl-2-[(2-methoxyphenyl)amino]-8-phenylpyrido[2,3-d]pyrimidin-7-one]",100 to 1000
10,"C#Cc1cc(=O)n(C2CCNC2=O)c2nc(Nc3ccc(N4CCN(C)CC4)cc3)ncc12 (stereo not shown) [Example 104, 3-(5-ethynyl-2-{[4-(4-methylpiperazin-1-yl)phenyl]amino}-7-oxopyrido[2,3-d]pyrimidin-8-yl)pyrrolidin-2-one]",100 to 1000
11,"C#Cc1c(C)c(=O)n2c3nc(ncc13)Nc1ccc(N3CCN(C)CC3)c(c1)OCCCCC2 [Example 229, 1^5-Ethynyl-1^6-Methyl-3^4-(4-methylpiperazin-1-yl)-1^7,1^8-dihydro-4-oxa-2-aza-1(2,8)-pyrido[2,3-d]pyrimidina-3(1,3)-benzenacyclononaphan-1^7-one]",20 to 100
12,"C#Cc1cc(=O)n(CC2CCNC2=O)c2nc(Nc3ccc(N4CCN(C)CC4)cc3)ncc12 (stereo not shown) [Example 119, 3-[(5-ethynyl-2-{[4-(4-methylpiperazin-1-yl)phenyl]amino}-7-oxopyrido[2,3-d]pyrimidin-8-yl)methyl]pyrrolidin-2-one]",20 to 100
13,"C#Cc1c(C)c(=O)n(Cc2ccccn2)c2nc(Nc3ccc(N4CCN(C)CC4)cc3)ncc12 [Example 178, 5-Ethynyl-6-methyl-2-{[4-(4-methylpiperazin-1-yl)phenyl]amino}-8-(pyridin-2-ylmethyl)pyrido[2,3-d]pyrimidin-7-one]",20 to 100
14,"C#Cc1cc(=O)n(-c2ccccc2)c2nc(Nc3ccc(N4CCC(N(C)C)CC4)cc3)ncc12 [Example 33, 2-({4-[4-(Dimethylamino)piperidin-1-yl]phenyl}amino)-5-ethynyl-8-phenylpyrido[2,3-d]pyrimidin-7-one]",< 20
15,"C#Cc1cc(=O)n(C)c2nc(Nc3ccc(N4CCN(C)CC4)c(NC(=O)NC4CCCC4)c3)ncc12 [Example 219, 3-Cyclopentyl-1-[5-({5-ethynyl-8-methyl-7-oxopyrido[2,3-d]pyrimidin-2-yl}amino)-2-(4-methylpiperazin-1-yl)phenyl]urea]",20 to 100
16,"C=Cc1cc(=O)n(-c2ccccc2)c2nc(Nc3ccccc3OC)ncc12 [Example 152, 5-ethenyl-2-[(2-methoxyphenyl)amino]-8-phenylpyrido[2,3-d]pyrimidin-7-one]",1000 to 50000
17,"C#Cc1cc(=O)n(-c2ccccc2)c2nc(Nc3ccc4c(c3)CCNCC4)ncc12 [Example 26, 5-ethynyl-8-phenyl-2-(2,3,4,5-tetrahydro-1H-3-benzazepin-7-ylamino)pyrido [2,3-d]pyrimidin-7-one]",< 20

row,SMILES,IC50 [nM]
1,"C#Cc1c(-c2ccncc2Cl)c(=O)n(C)c2nc(Nc3ccc(N(C)CCN(C)C)cc3)ncc12 [Example 139, 6-(3-chloropyridin-4-yl)-2-[(4-{[2-(dimethylamino)ethyl](methyl)amino}phenyl)amino]-5-ethynyl-8-methylpyrido [2,3-d]pyrimidin-7-one]",< 20
2,"C#Cc1cc(=O)n(-c2ccccc2)c2nc(Nc3ccc(N4CCN(C)CC4)c(CC)c3)ncc12 [Example 24, 2-{[3-Ethyl-4-(4-methylpiperazin-1-yl)phenyl]amino}-5-ethynyl-8-phenylpyrido[2,3-d]pyrimidin-7-one]",< 20
3,"C#Cc1c(C)c(=O)n(Cc2ccn[nH]2)c2nc(Nc3ccc(N4CCN(C)CC4)cc3)ncc12 [Example 109, 5-ethynyl-6-methyl-2-{[4-(4-methylpiperazin-1-yl)phenyl]amino}-8-(2H-pyrazol-3-ylmethyl)pyrido[2,3-d]pyrimidin-7-one]",20 to 100
4,"C#Cc1cc(=O)n(-c2cccc(NS(=O)(=O)C3CC3)c2)c2nc(Nc3ccccc3OC)ncc12 [Example 58, N-(3-(5-Ethynyl-2-((2-methoxyphenyl)amino)-7-oxopyrido[2,3-d]pyrimidin-8(7H)-yl)phenyl)cyclopropanesulfonamide]",100 to 1000
5,"C#Cc1cc(=O)n(-c2ccccc2)c2nc(Nc3ccc(N4CCCNCC4)cc3)ncc12 [Example 20, 2-{[4-(1,4-Diazepan-1-yl)phenyl]amino}-5-ethynyl-8-phenylpyrido[2,3-d]pyrimidin-7-one]",< 20
6,"C#Cc1cc(=O)n(-c2ccccc2)c2nc(Nc3ccc(N(C)C(=O)CN(C)C)cc3OC)ncc12 [Example 7, 2-(Dimethylamino)-N-(4-((5-ethynyl-7-oxo-8-phenyl-7,8-dihydropyrido[2,3-d]pyrimidin-2-yl)amino)-3-methoxyphenyl)-N-methylacetamide]",< 20
7,"C#Cc1cc(=O)n2c3nc(ncc13)Nc1ccc(N3CCCN(C)CC3)c(c1)NC(=O)CCC2 [Example 238, 1^5-Ethynyl-3^4-(4-methyl-1,4-diazepan-1-yl)-1^7,1^8-dihydro-2,4-diaza-1(2,8)-pyrido[2,3-d]pyrimidina-3(1,3)-benzenacyclooctaphane-1^7,5-dione]",< 20
8,"C#Cc1cc(=O)n(-c2ccccc2)c2nc(Nc3ccc(N4CCC(N5CCN(C)CC5)CC4)cc3)ncc12 [Example 23, 5-Ethynyl-2-({4-[4-(4-methylpiperazin-1-yl)piperidin-1-yl]phenyl}amino)-8-phenylpyrido[2,3-d]pyrimidin-7-one]",< 20
9,"C#Cc1c(C)c(=O)n2c3nc(ncc13)Nc1cccc(c1)OC/C=C\C2 [Example 190, (Z)-1^5-ethynyl-1^6-methyl-1^7,1^8-dihydro-4-oxa-2-aza-1(2,8)-pyrido[2,3-d]pyrimidina-3(1,3)-benzenacyclooctaphan-6-en-1^7-one]",100 to 1000
10,"C=Cc1c(-c2ccccc2Cl)c(=O)n(C)c2nc(Nc3ccc(N(C)CCN(C)C)cc3)ncc12 [Example 165, 6-(2-chlorophenyl)-2-[(4-{[2-(dimethylamino)ethyl](methyl)amino}phenyl)amino]-5-ethenyl-8-methylpyrido[2,3-d]pyrimidin-7-one]",100 to 1000
11,"C#Cc1cc(=O)n([C@H]2CC[C@H](NC(=O)c3ccnnc3)CC2)c2nc(Nc3ccc(N4CCN(C)CC4)cc3)ncc12 [Example 89, N-[(1r,4r)-4-(5-Ethynyl-2-{[4-(4-methylpiperazin-1-yl)phenyl]amino}-7-oxopyrido[2,3-d]pyrimidin-8-yl)cyclohexyl]pyridazine-4-carboxamide]",< 20
12,C#Cc1c(-c2ccccc2Cl)c(=O)n(C)c2nc(Nc3ccc(N(C)CCN(C)C)cc3)ncc12 [Example 126],< 20
13,"C#Cc1cc(=O)n(CC2CCCC2)c2nc(Nc3ccc(N4CCN(C)CC4)cc3)ncc12 [Example 67, 8-(Cyclopentylmethyl)-5-ethynyl-2-((4-(4-methylpiperazin-1-yl)phenyl)amino)pyrido[2,3-d]pyrimidin-7(8H)-one]",< 20
14,"C#Cc1cc(=O)n(C)c2nc(Nc3ccc(N(C)CCN(C)C)cc3)ncc12 [Example 43, 2-[(4-{[2-(Dimethylamino)ethyl](methyl)amino}phenyl)amino]-5-ethynyl-8-methylpyrido[2,3-d]pyrimidin-7-one]",20 to 100
15,"C#Cc1cc(=O)n(-c2ccc(OC)cc2)c2nc(Nc3ccccc3OC)ncc12 [Example 84, 5-ethynyl-8-(4-methoxyphenyl)-2-[(2-methoxyphenyl)amino]pyrido[2,3-d]pyrimidin-7-one]",20 to 100
16,"C#Cc1cc(=O)n2c3nc(ncc13)Nc1ccc(N3CCN(CCOC)CC3)c(c1)NC(=O)CCC2 [Example 236, 1^5-Ethynyl-3^4-(4-(2-methoxyethyl)piperazin-1-yl)-1^7,1^8-dihydro-2,4-diaza-1(2,8)-pyrido[2,3-d]pyrimidina-3(1,3)-benzenacyclooctaphane-1^7,5-dione]",< 20
17,"C#Cc1cc(=O)n(-c2ccccc2)c2nc(Nc3ccc(N4CCN(CC)CC4)cc3)ncc12 [Example 15, 2-{[4-(4-Ethylpiperazin-1-yl)phenyl]amino}-5-ethynyl-8-phenylpyrido[2,3-d]pyrimidin-7-one]",< 20

# Source: patent US20260137703A1, “2-AMINO-PYRIDO[2,3-D]PYRIMIDIN-7(8H)-ONE AND 7-AMINO-1-PYRIMIDO[4,5-D]PYRIMIDIN-2(1 H)-ONE DERIVATIVES AS EGFR INHIBITORS FOR THE TREATMENT OF CANCER” (Cancer Research Technology Limited, priority 2022, published 2026)
